# About 220 (0.56%) of roughly 39,000 compounds showed activity. Some of the results follow.
# Test system: Escherichia coli K-12 BW25113
# Experiment: relative growth (OD600 normalised to plate interquartile mean) (fraction); higher = less growth inhibition, active = 0.2 or less
# Conditions: 50 µM; LB; incubation time: overnight (16-24 h)
# 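Further: static incubation at 37 °C against the wild-type strain, values averaged over two biological replicates.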
row,Compound,relative growth
1,CNC(=O)CN1CCO[C@H]2CN(C(=O)COC)C[C@@H]21,inactive: 1
2,Cc1ccc(S(=O)(=O)Nc2cccc3c2O[C@@H](CN(C)CC2CC2)[C@H](C)CN([C@H](C)CO)C3=O)cc1,inactive: 1.01
3,C[C@@H]1CN([C@@H](C)CO)C(=O)c2cccc(NC(=O)CCCCCC(=O)Nc3ccccc3N)c2O[C@@H]1CN(C)C(=O)Nc1ccc(C(F)(F)F)cc1,inactive: 0.953
4,C[C@H]1CN([C@@H](C)CO)C(=O)c2cccc(NC(=O)C3CCCCC3)c2O[C@@H]1CN(C)Cc1ccc(C(=O)Nc2ccccc2N)cc1,inactive: 1.01
5,COc1cc(C)c(C=CC=CC=CC=CC(=O)O)c(C)c1C,inactive: 0.797
6,CC(C)Cc1ccc(CN2CC[C@@H](N)C2)cc1,inactive: 0.906
7,C[C@@H]1CCCCO[C@H](CN(C)Cc2ccc(C(F)(F)F)cc2)[C@@H](C)CN([C@@H](C)CO)C(=O)c2cc(NS(=O)(=O)c3ccc(Cl)cc3)ccc2O1,inactive: 1.11
8,C[C@@H]1CN([C@H](C)CO)C(=O)c2cccc(NS(=O)(=O)c3ccc(Cl)cc3)c2O[C@@H]1CN(C)S(=O)(=O)c1cn(C)cn1,inactive: 0.984
9,COc1ccc(S(=O)(=O)Nc2ccc3c(c2)C(=O)N([C@H](C)CO)C[C@@H](C)[C@H](CN(C)Cc2ccc(C(F)(F)F)cc2)OCCCC[C@H](C)O3)cc1,inactive: 1.07
10,C[C@@H]1CN([C@H](C)CO)C(=O)c2cc(C#CC3(O)CCCC3)cnc2O[C@@H]1CN(C)S(=O)(=O)c1ccc(F)cc1,inactive: 0.925
11,C[C@@H]1CN([C@H](C)CO)C(=O)Cc2cc(NC(=O)Nc3ccc4c(c3)OCO4)ccc2O[C@H]1CN(C)Cc1ccc(C(=O)Nc2ccccc2N)cc1,inactive: 1.01
12,O=C(Cc1ccncc1)Nc1ccc2c(c1)[C@@H]1C[C@@H](CC(=O)N3CCc4ccccc4C3)O[C@@H](CO)[C@@H]1O2,inactive: 0.989
13,CNC[C@H]1OCCCC[C@H](C)Oc2ccc(NS(=O)(=O)c3cn(C)cn3)cc2C(=O)N([C@H](C)CO)C[C@@H]1C,inactive: 0.972
14,NC[C@@H]1CC(=O)N(c2ccccc2)C1,inactive: 1.02
15,C[C@@H]1CN([C@H](C)CO)C(=O)c2c(c3ccccc3n2C)-c2ccccc2CO[C@@H]1CN(C)Cc1ccc(C(=O)O)cc1,inactive: 0.997
16,Cc1noc(C)c1S(=O)(=O)Nc1ccc2c(c1)C(=O)N([C@@H](C)CO)C[C@@H](C)[C@@H](CN(C)S(=O)(=O)c1cn(C)cn1)OCCCC[C@@H](C)O2,inactive: 0.989
17,C[C@@H]1CN([C@H](C)CO)C(=O)Cc2cc(NC(=O)Cn3cnnn3)ccc2O[C@H]1CN(C)C(=O)Nc1ccccc1,inactive: 1.01
18,COc1ccc([C@@H]([C@H](Cc2ccccc2)OC(C)=O)N2C[C@@H]3C(=NO[C@@H]3[C@@H](O)c3ccccc3)[C@@H]2Cc2ccccc2)cc1,inactive: 1.01
19,O=C(O[C@@H]1Cc2c(O)cc(O)cc2O[C@@H]1c1cc(O)c(O)c(O)c1-c1c([C@H]2Oc3cc(O)cc(O)c3C[C@H]2O)cc(O)c(O)c1O)c1cc(O)c(O)c(O)c1,inactive: 1
20,CCNC(=O)C[C@@H]1CC[C@@H]2[C@H](COc3ccc(NS(=O)(=O)c4ccccc4C)cc3C(=O)N2C)O1,inactive: 1

row,Compound,relative growth
1,COc1ccccc1C#Cc1ccc2c(c1)O[C@H](CN(C)Cc1cccnc1)[C@H](C)CN([C@@H](C)CO)S2(=O)=O,inactive: 1.03
2,COc1ccc2c3c(n(c2c1)C)[C@@H](CO)N(C[C@]13CN(C1)S(=O)(=O)c1ccc(cc1)C)S(=O)(=O)c1ccc(cc1)C,inactive: 1.03
3,C[C@@H]1CCCCO[C@@H](CN(C)S(=O)(=O)c2ccc(Cl)cc2)[C@@H](C)CN([C@@H](C)CO)C(=O)c2cc(NC(=O)Nc3ccc(C(F)(F)F)cc3)ccc2O1,inactive: 0.985
4,COCC#Cc1cnc2c(c1)C(=O)N([C@H](C)CO)C[C@@H](C)[C@@H](CN(C)C(=O)c1cnccn1)O2,inactive: 0.97
5,Cc1noc(C)c1NC(=O)Nc1ccc2c(c1)C(=O)N([C@H](C)CO)C[C@@H](C)[C@H](CN(C)Cc1ccc3c(c1)OCO3)OCCCC[C@H](C)O2,inactive: 1
6,C[C@H]1CN([C@@H](C)CO)C(=O)c2cccc(NC(=O)Nc3cccc4ccccc34)c2O[C@H]1CN(C)Cc1ccccc1,inactive: 1
7,C[C@@H]1CCCCO[C@@H](CN(C)S(=O)(=O)c2cccs2)[C@H](C)CN([C@H](C)CO)C(=O)c2cc(NS(=O)(=O)c3ccc(Cl)cc3)ccc2O1,inactive: 1.03
8,C[C@H](CO)N1C[C@H](C)[C@@H](CN(C)Cc2ccncc2)Oc2cc(C#CC(C)(C)O)ccc2S1(=O)=O,inactive: 0.991
9,NC1=NNC(=O)C1,inactive: 0.99
10,COc1ccc2c3c(n(c2c1)C)[C@H](CO)N(C[C@]13CCN(CC1)C(=O)c1ccccc1F)C(=O)Nc1ccc(cc1)F,inactive: 1.06
11,COC(=O)[C@H](Cc1ccc(-n2cc(-c3ccc(C(=O)NO)s3)nn2)cc1)N1CC2=C[C@H]([C@@H](O)Cc3ccccc3)n3c(=O)n(C)c(=O)n3[C@@H]2[C@@H](C2CC2)O1,inactive: 1
12,CCN1C[C@]23CN(C(=O)c4cnccn4)C[C@@H](C[C@H]2S1(=O)=O)O3,inactive: 0.985
13,Cl.OC(CCN1CCCC1)(c1ccccc1)C1CCCCC1 (centres undefined),inactive: 0.931
14,CCC(=O)N[C@@H]1C=C[C@H](CC(=O)OC)O[C@@H]1CO,inactive: 1.02
15,C[C@@H]1CN([C@H](C)CO)C(=O)Cc2cc(NC(=O)CCN3CCOCC3)ccc2O[C@@H]1CN(C)S(=O)(=O)c1cccs1,inactive: 0.987
16,C=C(C)[C@@H]1CC[C@]2(COC(C)=O)CC[C@]3(C)[C@H](CC[C@@H]4[C@@]5(C)CC[C@H](OC(C)=O)C(C)(C)[C@@H]5CC[C@]43C)[C@@H]12,inactive: 0.942
17,C=CCSc1n[nH]c(=O)[nH]c1=O,inactive: 0.915
18,Cn1c[n+](NC(=O)c2ccc(C(=O)ON3C(=O)CCC3=O)cc2)cn1,inactive: 1.03
19,C[C@@H]1CCCCO[C@H](CN(C)Cc2ccc(C(F)(F)F)cc2)[C@@H](C)CN([C@@H](C)CO)C(=O)c2cc(NC(=O)Nc3ccc(F)cc3)ccc2O1,inactive: 1.01
